The text below walks through data of the supplement of paper PMC6657886.

Common to all, as to assay: Agar dilution on enriched GC agar; resistance determinants by microarray.
On the technique in general: In agar dilution, organisms are placed on agar that contains the substance at set levels.

Compound in test [1]: CN(C)[C@@H]1C(O)=C(C(N)=O)C(=O)[C@@]2(O)C(O)=C3C(=O)c4c(O)cccc4[C@@](C)(O)[C@H]3C[C@@H]12 [tetracycline]
Compound in test [2]: CC1(C)S[C@@H]2[C@H](NC(=O)Cc3ccccc3)C(=O)N2[C@H]1C(=O)O [benzylpenicillin]
Compound in test [3]: CN[C@@H]1[C@H](O)[C@H](NC)[C@H]2O[C@@]3(O)C(=O)C[C@@H](C)O[C@H]3O[C@@H]2[C@H]1O [spectinomycin]
Compound in test [4]: CC[C@H]1OC(=O)[C@H](C)[C@@H](O[C@H]2C[C@@](C)(OC)[C@@H](O)[C@H](C)O2)[C@H](C)[C@@H](O[C@@H]2O[C@H](C)C[C@H](N(C)C)[C@H]2O)[C@](C)(O)C[C@@H](C)CN(C)[C@H](C)[C@@H](O)[C@]1(C)O [azithromycin]
Compound in test [5]: CO/N=C(\C(=O)N[C@@H]1C(=O)N2C(C(=O)O)=C(CSc3nc(=O)c(O)nn3C)CS[C@H]12)c1csc(N)n1 [ceftriaxone]

MIC of clinical N. gonorrhoeae isolates (2015-2017) by agar dilution on GC agar with 1% IsoVitaleX (ranges not stated); higher = less susceptible. No active / inactive call per row; the paper counts benzylpenicillin above 1 and ceftriaxone above 0.125 mg/L as resistant (EUCAST). The method is stated for benzylpenicillin and ceftriaxone and assumed for the other drugs. '<=' is inferred from pile-ups at the end values. Isolates are numbered anew.

Usually MIC stands for the lowest concentration that inhibits growth of the organism.

For “Neisseria gonorrhoeae isolate 285 (blaTEM plasmid: no, gyrA: wild type, mtrR promoter: wild type, parC: wild type, penA: wild type, ponA: wild type, porB: wild type, rpsJ: wild type, tetM plasmid: no)”, the MIC in test [1] was 0.12 µg/mL; in test [2] it was no more than 0.015 µg/mL; in test [3], 32 µg/mL; in test [4] it was 0.12 µg/mL; in test [5], no more than 0.002 µg/mL.

Regarding “Neisseria gonorrhoeae isolate 207 (blaTEM plasmid: no, gyrA: Thr91, Gly95, mtrR promoter: wild type, parC: wild type, penA: wild type, ponA: wild type, porB: wild type, rpsJ: wild type, tetM plasmid: no)”, the MIC was 0.5 µg/mL in test [1]; 0.12 µg/mL in test [2]; 16 µg/mL in test [3]; 0.03 µg/mL in test [4]; no more than 0.002 µg/mL in test [5].

“Neisseria gonorrhoeae isolate 174 (blaTEM plasmid: no, gyrA: wild type, mtrR promoter: wild type, parC: wild type, penA: ins345Asp, ponA: wild type, porB: wild type, rpsJ: Met57, tetM plasmid: no)”: the MIC in test [1] is 0.03 µg/mL; in test [2], 0.12 µg/mL; in test [3] it was 32 µg/mL; in test [4] it was 0.06 µg/mL; in test [5], no more than 0.002 µg/mL.

Regarding “Neisseria gonorrhoeae isolate 420 (blaTEM plasmid: no, gyrA: wild type, mtrR promoter: wild type, parC: wild type, penA: ins345Asp, ponA: wild type, porB: wild type, rpsJ: wild type, tetM plasmid: no)”, the MIC in test [1] is 0.5 µg/mL; in test [2] it was 0.06 µg/mL; in test [3], 16 µg/mL; in test [4], 0.06 µg/mL; in test [5], no more than 0.002 µg/mL.

As for “Neisseria gonorrhoeae isolate 147 (blaTEM plasmid: no, gyrA: wild type, mtrR promoter: -35delA, parC: wild type, penA: ins345Asp, ponA: wild type, porB: wild type, rpsJ: Met57, tetM plasmid: no)”, the MIC in test [1] is 0.5 µg/mL; in test [2] it was 0.25 µg/mL; in test [3], 16 µg/mL; in test [4], 0.12 µg/mL; in test [5], no more than 0.002 µg/mL.

In the case of “Neisseria gonorrhoeae isolate 180 (blaTEM plasmid: no, gyrA: Phe91, Gly95, mtrR promoter: wild type, parC: Arg87, Glu91, penA: ins345Asp, ponA: Pro421, porB: Asp120, Ala121, rpsJ: Met57, tetM plasmid: no)”, the MIC was 0.5 µg/mL in test [1]; 0.25 µg/mL in test [2]; 32 µg/mL in test [3]; 0.015 µg/mL in test [4]; no more than 0.002 µg/mL in test [5].

Take “Neisseria gonorrhoeae isolate 14 (blaTEM plasmid: no, gyrA: wild type, mtrR promoter: wild type, parC: wild type, penA: ins345Asp, ponA: wild type, porB: wild type, rpsJ: wild type, tetM plasmid: no)”: the MIC in test [1] came to 0.25 µg/mL; in test [2], 0.06 µg/mL; in test [3] it was 16 µg/mL; in test [4] it was 0.03 µg/mL; in test [5], 0.015 µg/mL.

Turning to “Neisseria gonorrhoeae isolate 473 (blaTEM plasmid: yes, gyrA: Phe91, Asn 95, mtrR promoter: -35delA, parC: Arg87, Glu91, penA: ins345Asp, ponA: Pro421, porB: Asn120, Asp121, rpsJ: Met57, tetM plasmid: no)”, the MIC is 1 µg/mL in test [1]; no less than 32 µg/mL in test [2]; 8 µg/mL in test [3]; 0.12 µg/mL in test [4]; 0.03 µg/mL in test [5].

“Neisseria gonorrhoeae isolate 151 (blaTEM plasmid: no, gyrA: Phe91, Asp95, mtrR promoter: -35delA, parC: wild type, penA: ins345Asp, ponA: Pro421, porB: Asn120, Asp121, rpsJ: Met57, tetM plasmid: no)”: the MIC in test [1] was 4 µg/mL; in test [2] it was 0.12 µg/mL; in test [3], 16 µg/mL; in test [4], 0.12 µg/mL; in test [5], 0.004 µg/mL.

On to “Neisseria gonorrhoeae isolate 134 (blaTEM plasmid: no, gyrA: wild type, mtrR promoter: wild type, parC: wild type, penA: ins345Asp, ponA: wild type, porB: wild type, rpsJ: wild type, tetM plasmid: no)”, for which the MIC in test [1] is 0.5 µg/mL; in test [2], 0.12 µg/mL; in test [3], 16 µg/mL; in test [4], 0.25 µg/mL; in test [5] it was 0.004 µg/mL.

For “Neisseria gonorrhoeae isolate 383 (blaTEM plasmid: no, gyrA: wild type, mtrR promoter: wild type, parC: wild type, penA: ins345Asp, ponA: wild type, porB: wild type, rpsJ: wild type, tetM plasmid: no)”, the MIC in test [1] was 0.25 µg/mL; in test [2], 0.03 µg/mL; in test [3], 16 µg/mL; in test [4], 0.06 µg/mL; in test [5], no more than 0.002 µg/mL.

As for “Neisseria gonorrhoeae isolate 84 (blaTEM plasmid: no, gyrA: Phe91, Asn95, mtrR promoter: -35delA, parC: wild type, penA: ins345Asp, ponA: Pro421, porB: Asn120, Asp121, rpsJ: Met57, tetM plasmid: no)”, the MIC amounted to 2 µg/mL in test [1]; 0.5 µg/mL in test [2]; 16 µg/mL in test [3]; 0.25 µg/mL in test [4]; 0.03 µg/mL in test [5].

“Neisseria gonorrhoeae isolate 300 (blaTEM plasmid: no, gyrA: wild type, mtrR promoter: wild type, parC: wild type, penA: ins345Asp, ponA: wild type, porB: wild type, rpsJ: wild type, tetM plasmid: no)”: the MIC in test [1] amounted to 0.5 µg/mL; in test [2], 0.12 µg/mL; in test [3], 16 µg/mL; in test [4], 0.015 µg/mL; in test [5] it was 0.004 µg/mL.

As to “Neisseria gonorrhoeae isolate 295 (blaTEM plasmid: no, gyrA: wild type, mtrR promoter: wild type, parC: wild type, penA: ins345Asp, ponA: wild type, porB: wild type, rpsJ: wild type, tetM plasmid: no)”, the MIC in test [1] was determined as 0.06 µg/mL; in test [2], 0.25 µg/mL; in test [3] it was 32 µg/mL; in test [4] it was 0.008 µg/mL; in test [5], 0.004 µg/mL.

Consider “Neisseria gonorrhoeae isolate 510 (blaTEM plasmid: no, gyrA: Phe91, Asn95, mtrR promoter: -35delA, parC: Arg 87, Glu91, penA: ins345Asp, ponA: Pro421, porB: wild type, rpsJ: Met57, tetM plasmid: no)”, for which the MIC in test [1] amounted to 1 µg/mL; in test [2], 1 µg/mL; in test [3] it was 32 µg/mL; in test [4] it was 1 µg/mL; in test [5] it was 0.015 µg/mL.

In the case of “Neisseria gonorrhoeae isolate 170 (blaTEM plasmid: no, gyrA: Phe91, Asn95, mtrR promoter: -35delA, parC: Arg87, Glu91, penA: ins345Asp, ponA: wild type, porB: wild type, rpsJ: Met57, tetM plasmid: no)”, the MIC in test [1] came out at 1 µg/mL; in test [2], 2 µg/mL; in test [3], 32 µg/mL; in test [4] it was 0.5 µg/mL; in test [5] it was 0.004 µg/mL.

In the case of “Neisseria gonorrhoeae isolate 243 (blaTEM plasmid: no, gyrA: Phe91, Asn95, mtrR promoter: -35delA, parC: wild type, penA: ins345Asp, ponA: Pro421, porB: wild type, rpsJ: Met57, tetM plasmid: no)”, the MIC was determined as 1 µg/mL in test [1]; 0.25 µg/mL in test [2]; 32 µg/mL in test [3]; 0.06 µg/mL in test [4]; 0.03 µg/mL in test [5].

Turning to “Neisseria gonorrhoeae isolate 181 (blaTEM plasmid: no, gyrA: Phe91, Asn 95, mtrR promoter: wild type, parC: Arg 87, Glu91, penA: ins345Asp, ponA: Pro421, porB: wild type, rpsJ: Met57, tetM plasmid: no)”, the MIC in test [1] came to 1 µg/mL; in test [2] it was 0.25 µg/mL; in test [3], 32 µg/mL; in test [4] it was 0.06 µg/mL; in test [5], 0.004 µg/mL.

As to “Neisseria gonorrhoeae isolate 318 (blaTEM plasmid: no, gyrA: Phe91, Asn95, mtrR promoter: -35delA, parC: Arg87, Glu91, penA: ins345Asp, ponA: Pro421, porB: Asn120, Asp121, rpsJ: Met57, tetM plasmid: no)”, the MIC stood at 2 µg/mL in test [1]; 2 µg/mL in test [2]; 32 µg/mL in test [3]; 0.25 µg/mL in test [4]; 0.015 µg/mL in test [5].

For “Neisseria gonorrhoeae isolate 465 (blaTEM plasmid: no, gyrA: wild type, mtrR promoter: wild type, parC: wild type, penA: wild type, ponA: wild type, porB: wild type, rpsJ: wild type, tetM plasmid: no)”, the MIC was 0.25 µg/mL in test [1]; no more than 0.015 µg/mL in test [2]; 16 µg/mL in test [3]; 0.12 µg/mL in test [4]; no more than 0.002 µg/mL in test [5].

For “Neisseria gonorrhoeae isolate 307 (blaTEM plasmid: no, gyrA: Phe91, Asn95, mtrR promoter: wild type, parC: Arg87, Glu91, penA: ins345Asp, ponA: wild type, porB: Asp120, Gly121, rpsJ: Met57, tetM plasmid: no)”, the MIC in test [1] is 0.5 µg/mL; in test [2], no more than 0.015 µg/mL; in test [3], 32 µg/mL; in test [4], 0.12 µg/mL; in test [5], no more than 0.002 µg/mL.

As for “Neisseria gonorrhoeae isolate 345 (blaTEM plasmid: no, gyrA: Phe91, Gly95, mtrR promoter: wild type, parC: Arg87, Glu91, penA: ins345Asp, ponA: Pro421, porB: Asp120, Ala121, rpsJ: wild type, tetM plasmid: no)”, the MIC in test [1] is 2 µg/mL; in test [2] it was 0.5 µg/mL; in test [3], 32 µg/mL; in test [4] it was 0.015 µg/mL; in test [5], no more than 0.002 µg/mL.

With “Neisseria gonorrhoeae isolate 372 (blaTEM plasmid: no, gyrA: Phe91, Asn 95, mtrR promoter: wild type, parC: Arg 87, Glu91, penA: ins345Asp, ponA: Pro421, porB: Gly120, Gly121, rpsJ: Met57, tetM plasmid: no)”, the MIC was 0.5 µg/mL in test [1]; 1 µg/mL in test [2]; 32 µg/mL in test [3]; 0.03 µg/mL in test [4]; no more than 0.002 µg/mL in test [5].

For “Neisseria gonorrhoeae isolate 398 (blaTEM plasmid: no, gyrA: Phe91, Asn95, mtrR promoter: -35delA, parC: Arg87, Glu91, penA: ins345Asp, ponA: Pro421, porB: Lys 120, Asn 121, rpsJ: Met57, tetM plasmid: no)”, the MIC in test [1] was 2 µg/mL; in test [2], 0.5 µg/mL; in test [3] it was 8 µg/mL; in test [4], 0.12 µg/mL; in test [5], 0.015 µg/mL.

“Neisseria gonorrhoeae isolate 162 (blaTEM plasmid: no, gyrA: wild type, mtrR promoter: -35delA, parC: wild type, penA: ins345Asp, ponA: wild type, porB: wild type, rpsJ: wild type, tetM plasmid: no)”: the MIC is 0.25 µg/mL in test [1]; 0.03 µg/mL in test [2]; 16 µg/mL in test [3]; 0.12 µg/mL in test [4]; no more than 0.002 µg/mL in test [5].
